# Laboratory results taken from publication PMC4336329 (PLoS ONE, 2015).
# About 2,200 (0.71%) of roughly 310,000 compounds showed an effect of 50% or more. The effect is printed as a negative number. Some of the results follow.
# Target: human ether-à-go-go-related gene (hERG) potassium channel (human, UniProt Q12809)
# Experiment: primary screen, population patch clamp on CHO cells stably expressing hERG
# Chain of human ether-à-go-go-related gene (hERG) potassium channel (Q12809 whole entry, looked up): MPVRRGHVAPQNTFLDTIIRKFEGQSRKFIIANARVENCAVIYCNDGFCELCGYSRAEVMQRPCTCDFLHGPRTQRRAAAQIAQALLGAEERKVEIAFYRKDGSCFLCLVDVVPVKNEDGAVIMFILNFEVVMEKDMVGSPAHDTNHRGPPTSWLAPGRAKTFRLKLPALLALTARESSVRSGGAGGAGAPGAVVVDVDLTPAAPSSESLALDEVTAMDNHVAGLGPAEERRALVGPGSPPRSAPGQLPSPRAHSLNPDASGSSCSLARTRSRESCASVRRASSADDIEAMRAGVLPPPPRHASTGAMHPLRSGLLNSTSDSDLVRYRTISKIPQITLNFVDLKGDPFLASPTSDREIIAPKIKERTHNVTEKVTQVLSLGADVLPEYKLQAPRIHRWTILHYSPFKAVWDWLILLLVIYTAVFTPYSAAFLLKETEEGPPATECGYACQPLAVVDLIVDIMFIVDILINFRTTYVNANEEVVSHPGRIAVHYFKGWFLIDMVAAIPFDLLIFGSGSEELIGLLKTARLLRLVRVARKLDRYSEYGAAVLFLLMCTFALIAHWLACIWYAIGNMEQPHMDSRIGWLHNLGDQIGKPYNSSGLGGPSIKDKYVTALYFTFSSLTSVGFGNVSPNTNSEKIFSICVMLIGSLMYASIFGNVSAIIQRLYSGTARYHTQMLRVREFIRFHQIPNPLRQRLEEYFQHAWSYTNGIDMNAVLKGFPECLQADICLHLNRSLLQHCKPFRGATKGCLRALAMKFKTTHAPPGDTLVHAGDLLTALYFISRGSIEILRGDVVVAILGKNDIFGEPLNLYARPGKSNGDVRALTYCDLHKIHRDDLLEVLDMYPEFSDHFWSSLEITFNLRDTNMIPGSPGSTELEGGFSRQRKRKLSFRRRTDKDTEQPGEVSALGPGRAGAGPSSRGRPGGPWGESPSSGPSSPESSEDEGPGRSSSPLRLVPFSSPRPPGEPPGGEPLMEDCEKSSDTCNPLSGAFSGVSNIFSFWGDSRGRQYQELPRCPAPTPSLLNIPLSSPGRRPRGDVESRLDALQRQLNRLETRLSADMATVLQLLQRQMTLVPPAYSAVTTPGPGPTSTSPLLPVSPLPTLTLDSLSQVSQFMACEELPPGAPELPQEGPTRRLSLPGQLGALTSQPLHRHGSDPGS
row,Compound,"hERG current change (%, negative = inhibition) at 1uM [%]"
1,COC(=O)CCC(=O)NNC(=O)CCC(=O)Nc1cccc(Cl)c1C,-7.98
2,Cc1c(S(=O)(=O)N2CCN(C(=O)c3ccco3)CC2)c(=O)n(C)c(=O)n1C,3.03
3,COc1nc(Nc2ccc3c(c2)OCO3)nc(OC)n1,9.52
4,Cc1cc(C)c(NC(=O)c2ccc[n+](Cc3ccc([N+](=O)[O-])cc3)c2)c(C)c1.[Br-],3.82
5,CCOC(=O)N1CCN(C(=O)CSc2nnc(CNC(=O)c3ccccc3F)o2)CC1,11.8
6,Cn1c(NC(=O)c2ccco2)c(-c2ccccc2)c(=O)c2ccccc21,7.77
7,Cc1cccc(C(=O)NCCNC(=O)c2cccnc2)c1,15.6
8,Cc1ccc(F)c(NC(=S)Nc2cccc3ccccc23)c1,14
9,COC(=O)CCC(=O)OC1(C)C(=O)C=C2C=C3CCCN3C=C2C1=O (stereo not drawn),-2.38
10,COc1ccccc1N1CCN(C2CCCN(C(=O)c3ccccn3)C2)CC1 (stereo not drawn),10.2
11,C/C(=N/NC(=O)CNc1ccc(C)cc1)c1ccc(Br)s1,2.65
12,N/C(=N\OC(=O)c1ccccc1[N+](=O)[O-])c1cccnc1,2.7
13,C/C(=N\NC(=O)Cn1c(-c2ccccn2)nc2ccccc21)c1ccccc1,5.08
14,COc1ccc(NC(=O)C(CC(=O)O)C(C)c2ccccc2)cc1 (stereo not drawn),8.34
15,Cc1cccc(N(C)c2ccc3cc(S(=O)(=O)N4CCCC4)ccc3n2)c1,13
16,O=C(O)CNS(=O)(=O)c1ccc2c3c(cccc13)C(=O)N2,15.6
17,CCOC(=O)C1(Cc2ccccc2)CCCN(C2CCN(C(C)=O)CC2)C1 (stereo not drawn),14.2
18,C=C(C)COc1ccc(-c2ncncc2Oc2ccc(OC)cc2)c(O)c1,-8.11
19,O=C(Nc1ccc(F)c(Cl)c1)c1nsc(Cl)c1Cl,12.8
20,Cc1ccccc1CN1C[C@@H]2C[C@@H](c3ccc4nsnc4c3)N3CCC[C@@]23C1=O,-0.62
21,CN(C)Cc1nnnn1-c1cccc(-n2nnnc2CN(C)C)c1,13.7
22,COc1ccc(S(=O)(=O)N2CCN(CC(=O)NC3CCCC3)CC2)cc1,13.2
23,CCCCOc1ccc(C(=O)Nc2ccc3c(c2)OCO3)cc1,10.1

row,Compound,"hERG current change (%, negative = inhibition) at 1uM [%]"
1,CC(=O)N1C(C)c2ccccc2C(C)(C)CC12CCCCC2 (stereo not drawn),9.69
2,COc1ccc(CNS(=O)(=O)c2ccc(F)c(C(=O)Nc3ccccc3OC)c2)cc1,11.9
3,CNc1c([N+](=O)[O-])ncn1C,8.02
4,COc1ccccc1OC(=O)C1CC(=O)N(c2ccc(Cl)cc2)C1 (stereo not drawn),-9.23
5,CCN(C(=S)NCc1ccccc1)c1ccccc1,-14.2
6,CC(NS(C)(=O)=O)c1nnc2n1-c1ccc(Br)cc1C(c1ccccc1Cl)=NC2 (stereo not drawn),5.73
7,O=C(CN1CCCc2ccccc21)N1CCc2ccccc21,13.6
8,N#Cc1cccc(NC(=O)NCCc2c[nH]c3ccccc23)c1,3.75
9,Cc1cc(C)c(C(=O)NC2CC(C)(C)Cc3c2cnn3-c2ccccc2)o1 (stereo not drawn),7.82
10,CCOc1ccccc1NC(=O)c1cccnc1,10.2
11,COc1ccc(CSc2nc(O)cc(=O)n2CC(C)C)cc1F,9.68
12,O=C(O)c1ccc(NC(=O)N2C[C@H]3C[C@@H](C2)c2cccc(=O)n2C3)cc1,-13.6
13,CCOC(=O)c1ccc(NC(=O)COc2ccccc2OC)cc1,11.3
14,O=C(NC1CCCc2c1cnn2-c1ccc(F)cc1F)c1ccccc1N1CCOCC1 (stereo not drawn),5.82
15,COc1ccc(CNc2nc(-c3cccnc3)nn2C(=O)c2ccco2)cc1,10.3
16,Cc1ccc(NC(=O)c2cc(N3C(=O)CCC3=O)ccc2N2CCOCC2)cc1,5.52
17,COc1cc(C2C(C#N)=C(C)NC3=C2C(=O)CC(C)(C)C3)cc(OC)c1O (stereo not drawn),10.8
18,CC(=O)Nc1cccc(NC(=O)CCNC(=O)c2ccccc2)c1,8.11
19,CCCCc1nc(SCCN2CCOCC2)c2c(=O)n(C)c(=O)n(C)c2n1,0.56
20,COc1cccc(/C=C2\SC(=O)N(CC(=O)NC3CCS(=O)(=O)C3)C2=O)c1 (stereo not drawn),11.1
21,COc1ccc2c(c1)[nH]c1c(Cl)ncnc12,5.65
22,CCOc1ccc(CC2C(=O)NC(=O)N(c3ccc(CC)cc3)C2=O)cc1 (stereo not drawn),1.99
